Data published in a collection of fitness landscapes (doi:10.1016/j.celrep.2020.107928).
The full ranking holds about 81,000 sequences; the median of “one-hybrid fitness for binding NBS DNA” is about -0.1, and the highest 2% start at about 0.36. Some of the results follow.

B1: Caulobacter ParB omega fusion; a variant is named by its letters at X, in order, B8GW30 (parent)
chain: MESVVVGEPGMSEGRRGLGRGLSALLGEVDAAPAQAPGEQLGGSREAPIEILQRNPDQPRRTFREEDLEDLSNSIREKGVLQPILVRPSPDTAGEYQIVAGERAWRAAQRAGLKTVPIMVRELDDLAVLEIGIIENVQRADLNVLEEALSYKVLMEKFERTQENIAQTIGKSXSHVANXMRLLXLPDEVQSYLVSGELTAXHARAIAAAADPVALAKQIIEGGLSVRETEALARKAPNLSAGKSKGGRPPRVKDTDTQALESDLSSVLGLDVSIDHRGSTGTLTITYATLEQLDDLCNRLTRGI

Variants of: B1
Test: one-hybrid fitness for binding NBS DNA (the Noc-binding site; scaled: cognate 1, non-cognate 0); higher = stronger binding
Details: with NBS DNA site
Outline: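 Values were rescaled so that cognate is 1 and non-cognate is 0. Each is a fitness, the log change in a variant's read ratio to wild type from Illumina reads of plasmids before and after selection, with three replicate libraries pooled and variants under 10 reads dropped. Selection of the Caulobacter ParB libraries, four specificity codons randomised, used E. coli USO with a HIS3 reporter, site 19 bp from the promoter, on M9-minus-histidine with 0.1 mM IPTG and 5 mM 3-AT for 48 hours at 37°C.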

Variant	one-hybrid fitness for binding NBS DNA
RHPY	≤ 0.2
PPSW	≤ 0.2
AQQI	≤ 0.2
DASK	≤ 0.2
SKFC	≤ 0.2
LNLS	≤ 0.2
RGMC	≤ 0.2
MYTF	≤ 0.2
PPCS	≤ 0.2
CAGF	≤ 0.2
IHED	≤ 0.2
ITSR	≤ 0.2
HYVS	≤ 0.2
NLGD	≤ 0.2
YLMT	≤ 0.2
RTGM	≤ 0.2
KPSI	≤ 0.2
NYCR	≤ 0.2
VKKH	≤ 0.2
ACFR	≤ 0.2
LQGP	≤ 0.2
MKCN	≤ 0.2
SGNA	≤ 0.2
MILV	≤ 0.2
QVMM	≤ 0.2

Variant	one-hybrid fitness for binding NBS DNA
GDPW	≤ 0.2
RHEL	≤ 0.2
RLCM	≤ 0.2
IDPT	≤ 0.2
DDSW	≤ 0.2
TNFF	≤ 0.2
GTVE	≤ 0.2
WIPR	≤ 0.2
NTAG	≤ 0.2
LPFA	≤ 0.2
QPVM	≤ 0.2
CMNT	≤ 0.2
YRKH	≤ 0.2
AILC	≤ 0.2
QAEG	≤ 0.2
ERMT	≤ 0.2
EGCG	≤ 0.2
ECFS	≤ 0.2
YMVA	≤ 0.2
RMRL	≤ 0.2
EVTG	≤ 0.2
ASWY	≤ 0.2
PPEL	≤ 0.2
KLNK	≤ 0.2
WLCN	≤ 0.2

Variant	one-hybrid fitness for binding NBS DNA
QNLY	≤ 0.2
TKGS	≤ 0.2
TKSR	≤ 0.2
HTYI	≤ 0.2
RKGV	≤ 0.2
EQTV	≤ 0.2
SFPR	≤ 0.2
PGNQ	≤ 0.2
QIPE	≤ 0.2
CDPK	≤ 0.2
HQPA	≤ 0.2
ADVW	≤ 0.2
WASC	≤ 0.2
RHVD	≤ 0.2
RVQW	≤ 0.2
HCHA	≤ 0.2
QHGN	≤ 0.2
LFSW	≤ 0.2
WMSV	≤ 0.2
HSYA	≤ 0.2
MSVK	≤ 0.2
FRPI	≤ 0.2
LGAE	≤ 0.2
QQVP	≤ 0.2
GDMM	≤ 0.2

Variant	one-hybrid fitness for binding NBS DNA
IITV	≤ 0.2
QYKE	0.213
QYFA	≤ 0.2
MLDM	≤ 0.2
AWDS	≤ 0.2
LQLG	≤ 0.2
PDMF	≤ 0.2
MHRI	≤ 0.2
QQHI	≤ 0.2
QVRV	≤ 0.2
SMGM	≤ 0.2
TCGV	≤ 0.2
VFPG	≤ 0.2
PVNQ	≤ 0.2
RGIA	≤ 0.2
AHGT	≤ 0.2
KIVV	≤ 0.2
VTVR	≤ 0.2
GDCL	≤ 0.2
SDHY	≤ 0.2
VHKF	≤ 0.2
WESS	≤ 0.2
YQKG	≤ 0.2
SYAS	≤ 0.2
PGEC	≤ 0.2

Variant	one-hybrid fitness for binding NBS DNA
VKHY	≤ 0.2
VMVY	≤ 0.2
GDDI	≤ 0.2
HYAN	≤ 0.2
GKRN	≤ 0.2
ETAS	≤ 0.2
DDDR	≤ 0.2
CATL	≤ 0.2
GMCC	≤ 0.2
NRFT	≤ 0.2
GALI	≤ 0.2
YDTG	≤ 0.2
RNGS	≤ 0.2
QEDF	≤ 0.2
SCWA	≤ 0.2
FEGR	≤ 0.2
TVPN	≤ 0.2
GWKR	0.221
QHIW	≤ 0.2
YAQT	≤ 0.2
RHPP	≤ 0.2
EFYG	≤ 0.2
QGLP	≤ 0.2
SPTE	≤ 0.2
PDEL	≤ 0.2

Variant	one-hybrid fitness for binding NBS DNA
YDPY	≤ 0.2
SFCT	≤ 0.2
AASM	≤ 0.2
ITKV	≤ 0.2
SERR	≤ 0.2
LFTY	≤ 0.2
NEMF	≤ 0.2
HLED	≤ 0.2
NYIE	≤ 0.2
PTYK	≤ 0.2
RCCA	0.268
YNGP	≤ 0.2
GELR	≤ 0.2
WCST	≤ 0.2
YTYR	≤ 0.2
HANF	≤ 0.2
CAVY	≤ 0.2
DDHT	≤ 0.2
HSPT	≤ 0.2
RRSV	0.296
NQDG	≤ 0.2
DANY	≤ 0.2
YPCF	≤ 0.2
KSNR	≤ 0.2
GIET	≤ 0.2

Variant	one-hybrid fitness for binding NBS DNA
PFPV	≤ 0.2
QSPY	≤ 0.2
LNAF	≤ 0.2
QPHK	≤ 0.2
QDNT	≤ 0.2
PMLY	≤ 0.2
WVRT	≤ 0.2
SAQT	≤ 0.2
QNRT	0.292
KNQF	≤ 0.2
AMLE	≤ 0.2
SNRY	≤ 0.2
REER	≤ 0.2
NPVF	≤ 0.2
RSND	≤ 0.2
PYNG	≤ 0.2
DYNH	≤ 0.2
QMRK	0.387
WSFS	≤ 0.2
DREG	≤ 0.2
WFGR	≤ 0.2
DMHW	≤ 0.2
RSPW	≤ 0.2
LRPC	≤ 0.2
AKMP	≤ 0.2

Variant	one-hybrid fitness for binding NBS DNA
VIAG	≤ 0.2
YRLI	≤ 0.2
TLLC	≤ 0.2
GTNI	≤ 0.2
KTCY	≤ 0.2
LDAC	≤ 0.2
TWGR	≤ 0.2
IRYR	0.226
NGIL	≤ 0.2
ETPM	≤ 0.2
RDRT	≤ 0.2
GCTE	≤ 0.2
NQHC	≤ 0.2
AKSR	≤ 0.2
LAGQ	≤ 0.2
HGDY	≤ 0.2
RQTI	≤ 0.2
HTNY	≤ 0.2
QLCM	≤ 0.2
LNHR	≤ 0.2
